From the BET-seq Pho4 binding data (Le et al. 2018)
The list shows a part of the results. These are noisy estimates, calculated here from bound and input reads.

biological target: T1, Pho4 (S. cerevisiae) (UniProt P07270); assay: relative binding free energy (BET-seq); higher = weaker binding; conditions: reference: library average
T1 sequence: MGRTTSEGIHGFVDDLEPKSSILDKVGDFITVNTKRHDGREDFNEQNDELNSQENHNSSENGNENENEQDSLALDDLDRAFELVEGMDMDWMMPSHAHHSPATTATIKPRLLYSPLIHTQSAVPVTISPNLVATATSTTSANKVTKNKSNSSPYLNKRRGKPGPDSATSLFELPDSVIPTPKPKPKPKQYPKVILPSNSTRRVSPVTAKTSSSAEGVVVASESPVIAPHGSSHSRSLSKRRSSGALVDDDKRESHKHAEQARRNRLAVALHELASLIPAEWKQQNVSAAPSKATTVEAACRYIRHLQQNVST

Sequence	relative binding free energy [kcal/mol]
TGAATCACGTGCAGGG	0.18
TGTAACACGTGGAATG	0.09
GGTGTCACGTGGTCAG	0
TAATGCACGTGTTCTG	-0.12
ATTTGCACGTGATAGG	0.1
TCAAGCACGTGGTGTT	-0.23
AAGGGCACGTGCATTG	-0.17
GAATTCACGTGTGGGC	0.42
TGTAGCACGTGTCGGA	-0.15
TGGGGCACGTGGGGCT	-0.22
GTTGACACGTGAGGGG	0.27
GGCGTCACGTGATCGG	0.23
GGGTACACGTGGTATA	0.06
TGATGCACGTGGGACG	-0.22
ATAGTCACGTGGTACT	0
CGGTGCACGTGGGTCG	-0.16
TATCTCACGTGTGTGA	0.24
AGTGGCACGTGCAGTT	-0.11
GAAGGCACGTGTGTAT	0.1
AAATGCACGTGTGCGG	-0.06
TGTGTCACGTGGGGTC	-0.09
GGTAGCACGTGTTTTG	0.07
ATGGTCACGTGGGAGG	0.06

Sequence	relative binding free energy [kcal/mol]
CTCGGCACGTGTGGTG	-0.09
TGTATCACGTGAGGCT	0.37
GGGACCACGTGGGGGC	-0.06
GTGTCCACGTGTTTTT	-0.02
TTTCGCACGTGGTAGA	0
AAATTCACGTGTCTGG	0.25
GTGATCACGTGGGATT	0.12
GGGGCCACGTGAAGTT	0.26
CGTAACACGTGGTGTT	-0.07
TATGGCACGTGTCCGT	-0.12
CTACACACGTGGGGGT	-0.09
GTAGCCACGTGATTGT	0.15
TATTGCACGTGGTCCG	-0.12
AAAGACACGTGTGTTA	0.12
ACGTGCACGTGATGGG	0
CGGGTCACGTGATGAG	0.24
TTGGTCACGTGTTCGA	0.08
GGGTGCACGTGTTTGG	0.04
CATTGCACGTGGTTTT	-0.14
TATATCACGTGGGGGC	-0.04
CGATGCACGTGGGTCT	-0.09
CGAGCCACGTGGGGTA	-0.17
CTTAGCACGTGGTGTA	-0.24

Sequence	relative binding free energy [kcal/mol]
TCTCGCACGTGTATGG	0.05
TGCGACACGTGTTTTT	0.2
GTCTGCACGTGTAGAG	0.19
AGGCGCACGTGGGTAC	-0.05
TTAAACACGTGAAAGT	0.27
TTAAACACGTGAATGG	0.32
TATACCACGTGGTGTG	-0.23
TCATTCACGTGTTATG	0.25
TGGGGCACGTGGCTGT	-0.16
TTGTTCACGTGAGAGG	0.55
GGGTACACGTGCACGG	0.11
TTATACACGTGGATGA	0.04
CATGTCACGTGGAATT	0.27
AAATTCACGTGATTTG	0.4
AGTGTCACGTGCTGGG	0.09
TGAGACACGTGAGGTG	0.3
GGAGACACGTGACGGG	0.13
GATTGCACGTGGTTGG	0.05
GTTTGCACGTGTTTAT	0.13
GTCGGCACGTGACTGT	0.19
GTAGGCACGTGGTGTT	-0.03
TATAGCACGTGCGTGA	-0.08
TTGTGCACGTGCGGCC	-0.01

Sequence	relative binding free energy [kcal/mol]
TGGATCACGTGTGGCA	0.17
TTGACCACGTGGGTAG	-0.15
TGAAGCACGTGTGATG	0.07
AAATGCACGTGACGGT	0.12
TAGCTCACGTGGGAGT	0.03
AGTGCCACGTGAGGGC	-0.01
AATTTCACGTGTCGTG	0.17
AGTGGCACGTGAAGGA	0.16
GTGGTCACGTGGGCTT	0.05
TGGTGCACGTGTCATT	-0.18
TGAGTCACGTGGTTAA	0.06
ATAATCACGTGAAGTG	0.27
AATAACACGTGGTGGT	0.01
GATAGCACGTGTAGAT	0.31
CTTATCACGTGAGGTT	0.42
AATATCACGTGTGGGG	0.14
GCGTTCACGTGCGGTG	0.16
CGGGTCACGTGGATCA	0.18
GGCGTCACGTGGTCGG	0.18
GGTCACACGTGGGCGC	0.15
AGTGGCACGTGGTCAG	-0.3
ATGCGCACGTGTTAAG	0.09
GTTGCCACGTGGCGTT	-0.18

Sequence	relative binding free energy [kcal/mol]
AGACTCACGTGTGGGT	0.14
TAGGGCACGTGTATGG	-0.03
TGTTACACGTGATATA	0.06
AAGGTCACGTGTCTTG	0.16
GGTGCCACGTGGTAGG	-0.18
TCTTGCACGTGTGAGA	0.06
ATGCTCACGTGTGTAA	0.15
TGGGTCACGTGGTATT	0.06
AGAGTCACGTGCGTAT	0.13
AGAGGCACGTGGGTCT	-0.14
TGTTTCACGTGGCTCG	0.26
GAGCGCACGTGAGGTT	0.19
GTATGCACGTGGAGAT	-0.02
GGTGGCACGTGAAATT	0.26
GAGGACACGTGTGGGC	0.09
TAGGACACGTGAGTGA	0.14
ATAGCCACGTGGGAGT	-0.2
GTGGCCACGTGCGTTG	-0.17
TTTTGCACGTGACATT	0.14
TGTGGCACGTGTTCGG	-0.07
TAGCTCACGTGTTCGT	0.24
TACGTCACGTGGTCAT	0.1
TTCTGCACGTGGCGGA	-0.11
